Consider 54 molecules from the supplement of paper PMC6135742.

Where a name gives a salt, the structure may show the parent alone. ± gives the standard deviation of the averaged measurements. The full ranking holds about 2,600 compounds; the median of “total cell number (DAPI+ nuclei) relative to DMSO vehicle control” is about -1.4, and the lowest 2% start at about -23. The list shows a part of the results.

This test has as its system jimpy (Plp1 jimpy) mouse iPSC-derived oligodendrocyte progenitor cells. The test is described as follows: total cell number (DAPI+ nuclei) relative to DMSO vehicle control (SDs above negative control mean); higher = more surviving cells. As to conditions: 10 µM; 3 days.
Regarding `COc1ccc(-c2ccc3cc(C(=O)O)ccc3c2)cc1C12CC3CC(CC(C3)C1)C2` [Adapalene], the total cell number was -4.06. The value for `O=C(O)c1cc2cc(F)ccc2[nH]1` [5-Fluoroindole-2-carboxylic acid] was -1.42. For the molecule `CCCCc1oc2ccccc2c1C(=O)c1cc(I)c(OCCN(CC)CC)c(I)c1` [Amiodarone hydrochloride], the total cell number is -11.8. Next, `CCCCc1oc2ccccc2c1C(=O)c1cc(I)c(OCCN(CC)CC)c(I)c1` [Amiodarone HCl]: -17.2; `O=C(O)c1cccnc1` [Nicotinic Acid]: -1.62; `Cc1cccc(N(C)C(=S)Oc2ccc3ccccc3c2)c1` [Tolnaftate]: -0.723.

In the case of `N[C@@H](COP(=O)(O)O)C(=O)O` [O-Phospho-L-serine], the total cell number is -0.573. Next, `C=CCNC1=C2C[C@@H](C)C[C@H](OC)[C@H](O)[C@@H](C)/C=C(\C)[C@H](OC(N)=O)[C@@H](OC)/C=C\C=C(/C)C(=O)NC(=CC1=O)C2=O` [17-AAG (Tanespimycin)]: -25; `CN1CCN(c2ccc3nc(-c4c(N)c5c(F)cccc5[nH]c4=O)[nH]c3c2)CC1` [Dovitinib (TKI-258) Dilactic Acid]: -12.1; `CN1CCN(c2ccc3nc(-c4c(N)c5c(F)cccc5[nH]c4=O)[nH]c3c2)CC1` [Dovitinib (TKI-258, CHIR-258)]: -25.7. Consider `O=c1[nH]c(=O)n([C@H]2C[C@H](O)[C@@H](CO)O2)cc1I` [Idoxuridine], for which the total cell number is -2.83. The value for `Cc1ccc(S(=O)(=O)OCC(=O)Nc2ccc(C(=O)O)c(O)c2)cc1` was -0.179; that for `C[C@H]1C[C@H]2[C@@H]3CCC4=CC(=O)C=C[C@]4(C)[C@H]3C(=O)C[C@]2(C)[C@@]1(O)C(=O)CO` [Meprednisone] was -1.79. The value for `O=C(Nc1ncc(SCCN2CCCC2)s1)[C@]1(c2ccc(S(=O)(=O)C3CC3)cc2)C[C@H]1C1CCCCC1` was -14.4; that for `O=C(O)CCCN1CCC(O[C@@H](c2ccc(Cl)cc2)c2ccccn2)CC1` [Bepotastine Besilate] was -0.974; that for `NNC(=O)c1ccncc1` [Isoniazid] was -1.58. The value for `CN(C(=O)CCCOc1ccc2[nH]c(=O)ccc2c1)C1CCCCC1` [Cilostamide] was -0.169; that for `COc1ccc(Br)cc1S(=O)(=O)NC(=O)/C=C/c1ccccc1Cc1ccc2ccccc2c1` was -0.819. `CC[C@H](c1ccc(O)cc1)[C@@H](CC)c1ccc(O)cc1` [Hexestrol]: the total cell number was -1.22. The value for `Cc1c(Nc2ncccc2C(=O)O)cccc1C(F)(F)F` [Flunixin Meglumin] was 0.511; that for `COc1cc(N)c(Cl)cc1C(=O)OCCN1CCCCC1` was -5.05. Next, `N#CC1(c2ccc(NC(=O)c3cccnc3NCc3ccncc3)cc2)CCCC1` [Apatinib]: -2.57; `OC[C@@H](O)CN1CCN(c2ccccc2)CC1` [Levodropropizine]: 0.711; `CCCCCC(O)CCCC(=O)O` (centres undefined) [5-hydroxydecanoic acid sodium]: -0.644. The value for `CN1CCN(C(=O)c2cc3cc(Cl)ccc3[nH]2)CC1` was -2.98; that for `CCCN(CC1CC1)c1nc(C)nc(Nc2c(Cl)cc(Cl)cc2Cl)c1Cl` was -8.76; that for `O=C1NC(c2cccc([N+](=O)[O-])c2)=CCN1c1ccccc1O` [Icilin] was 0.524. Turning to `Nc1ncnc2c1ncn2C1CCCC1` [9-cyclopentyladenine], the total cell number is -3.32. Next, `COc1ccc(CNc2nc(N3CCC[C@H]3CO)ncc2C(=O)NCc2ncccn2)cc1Cl` [Avanafil]: 1.77. Next, `NC(=O)c1ccccc1` [Benzamide]: -1.64; `Cc1c(-c2ccc(-c3ccccc3F)cc2)nc2ccc(F)cc2c1C(=O)O` [Brequinar sodium salt hydrate]: -0.144; `Nc1nc(N)c2nc(-c3cccc(O)c3)c(-c3cccc(O)c3)nc2n1`: -2.12. Next, `Cn1cnc2c(F)c(Nc3ccc(Br)cc3Cl)c(C(=O)NOCCO)cc21` [Selumetinib (AZD6244)]: -9.24; `CN(Cc1cc(Br)cc(Br)c1N)C1CCCCC1` [Bromhexine HCl]: 3.21.

For the molecule `C[C@H](CS)C(=O)N1CCC[C@H]1C(=O)O` [Captopril], the total cell number was -4.67 ± 3.1. The value for `C[C@H](Cc1ccc(O)c(O)c1)[C@@H](C)Cc1ccc(O)c(O)c1` was -8.61. Next, `NCCc1ccc(O)c(O)c1` [Dopamine hydrochloride]: -1.23; `NCCc1ccc(O)c(O)c1` [Dopamine HCl]: -0.925; `COc1ccccc1CN[C@H]1CCCN[C@H]1c1ccccc1`: -1.93.

Regarding `NC(N)=NC(N)=Nc1ccccc1` [1-Phenylbiguanide], the total cell number is -1.26. Next, `Nc1ncnc2c1ncn2[C@@H]1O[C@@H]2COP(=O)(O)O[C@H]2[C@H]1O` [Adenosine 3',5'-cyclic monophosphate]: 1.66; `CC(C)C(=O)c1c(C(C)C)nn2ccccc12` [Ibudilast]: -1.93; `C[N+](C)(C)CC(O)CC(=O)[O-]` (racemic) [DL-Carnitine HCl]: 2.24. Next, `C[N+](C)(C)C[C@H](O)CC(=O)[O-]` [L-carnitine]: -0.368.

As to `CC(C)NCC(O)COc1cccc2[nH]ccc12` (centres undefined) [Pindolol], the total cell number was -2.13. Next, `COC(=O)C(C)(N)Cc1ccc(O)cc1` (racemic) [alpha-Methyl-DL-tyrosine methyl ester hydrochloride]: -2.52. The value for `COC(=O)[C@H]1[C@H]2C[C@H]3c4[nH]c5ccccc5c4CCN3C[C@H]2CC[C@@H]1O` [Rauwolscine hydrochloride] was -1.23; that for `Cn1c(N2CCCCS2(=O)=O)nc(C(=O)NCc2ccc(F)cc2)c(O)c1=O` was -4.11. Next, `CC(CN(C)C)CN1c2ccccc2CCc2ccccc21` (centres undefined) [Trimipramine maleate]: -4.49; `C=C1C(=O)O[C@H]2[C@H]1CC/C(C)=C/CC[C@@]1(C)O[C@@H]21` [(-)-Parthenolide]: -12.8. `C=C1C(=O)O[C@H]2[C@H]1CC/C(C)=C/CC[C@@]1(C)O[C@@H]21` [Parthenolide]: the total cell number was -10.2.

With `O=C(O)COc1ccc(C(=O)c2cccs2)c(Cl)c1Cl` [Tienilic acid], the total cell number is -0.385. The value for `COc1ccc(CCC(=O)Nc2nc3ccc(Cl)cc3s2)cc1OC` was -1.02; that for `COc1ccc(CCn2nnnc2C2(c3ccc(C)cc3)CC2)cc1` [Mephetyl tetrazole] was -0.201.
